Reference: PubChem BioAssay AID743262 (National Center for Advancing Translational Sciences (NCATS), 2014)
The campaign covered roughly 1,300 compounds. About 25 (2%) were called active. Roughly 9% stayed inconclusive and do not appear here. Calls come from the whole dose curve; as a rule, active = well fitted activation curve with a large enough effect; inconclusive = small, poorly fitted or top-dose-only effect; inactive = flat fitted curve, though single readings scatter. The list shows a part of the results.

The compounds below were run against Glucagon-like peptide 1 receptor (Homo sapiens) (UniProt P43220) (assay: qHTS of GLP-1 Receptor Agonists: Hit Validation). Details: HEK293 GLP-1R, cAMP-response luciferase, 4-6 h; series mostly up to 46.1 µM; activation: at the top concentration.
Outline: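 Luminescence from a cAMP-responsive luciferase reporter was read 12 min after detection reagent at RT. Before that, HEK293 cells stably expressing GLP-1R plus reporter, seeded 12 h earlier, were exposed to compound for 4-6 hr at 37 deg C.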
Note: % of control where 0% means no effect.

Sequence of UniProt P43220 (P43220 whole entry, looked up): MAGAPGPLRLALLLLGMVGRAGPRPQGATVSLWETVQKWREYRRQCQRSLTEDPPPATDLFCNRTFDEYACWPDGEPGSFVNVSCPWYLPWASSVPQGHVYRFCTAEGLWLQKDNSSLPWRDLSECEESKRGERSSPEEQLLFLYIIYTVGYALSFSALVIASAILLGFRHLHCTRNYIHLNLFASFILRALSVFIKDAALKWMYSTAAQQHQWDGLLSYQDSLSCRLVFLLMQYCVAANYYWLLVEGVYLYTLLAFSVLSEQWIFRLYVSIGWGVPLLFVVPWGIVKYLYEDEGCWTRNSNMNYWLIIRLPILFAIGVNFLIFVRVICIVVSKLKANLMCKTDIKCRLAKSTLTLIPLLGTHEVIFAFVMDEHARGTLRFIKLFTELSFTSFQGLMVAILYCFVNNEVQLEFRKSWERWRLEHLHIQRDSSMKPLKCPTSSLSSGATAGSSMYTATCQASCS

activation, inactive:
CC1CCCCN1CCCOC(=O)c1ccccc1 (configuration not stated) 6.43%, CCOC(=O)c1sc2nc(CC(=O)OC)nc(N(C)CCc3ccccn3)c2c1C 2.24%, Cc1ccccc1CN1CCC(CNc2ncnc3onc(-c4ccc(Cl)cc4)c23)CC1 1.69%, COC(=O)c1ccc(COC(=O)c2cccnc2Cl)cc1 3.57%, C[n+]1cnn2c1SCC1(COC1)C2 -1.66%, C/C(N)=C(/C#N)C(=O)CSc1nnc(Nc2cccc(C)c2)s1 0.189%, Cc1cc(C)nc(SCc2nnc(SCC(=O)OC3CCCCC3)o2)n1 17.3%, CCCOc1ccc(N/C=C/C(=O)c2ccc(OC)c(OC)c2)cc1 -0.343%, Cc1ccc(S(=O)(=O)N2CCC(C(=O)OCC(=O)N3CCc4ccccc43)CC2)cc1 -0.209%, CCn1nc(NC(=O)c2ccco2)c2cc3cc(C)ccc3nc21 0.893%, CC(C)Sc1ncc(S(=O)(=O)c2ccccc2)c(=O)[nH]1 0.143%, COc1ccc(CCNC(=O)c2cnn3cccnc23)cc1OC 0.676%, COc1cc(SC)ccc1C(=O)NCc1ccc(C)cc1 2.5%, CC12CCC(C(=O)NCc3ccc(F)cc3)(OC1=O)C2(C)C (configuration not stated) -0.954%, Clc1ccccc1Nc1nc(NCC2CC2)nc2ccsc12 4.99%, COCCNc1nc2sc3c(c2c(=O)n1Cc1ccco1)CCCCC3 4.68%, NCCC1CCCC(CCN)N1 (configuration not stated) 0.323%, COC(=O)CSc1nc2c(c(=O)n(C)c(=O)n2C)n1CCC(C)C 2%, S=C(NCCc1ccccc1)N/N=C/c1c(Cl)cccc1Cl 20.4%, COc1ccc(C(=O)NCCSCc2ccccc2Cl)cc1OC 5.99%, CCOC(=O)c1c(C)n(C)c2ccc(OC)c(NC(=O)CN3CCC4(CC3)OCCO4)c12 0.301%, O=[N+]([O-])c1ccc2c(c1)ncn2-c1ccccc1 2.61%, COc1ccc(-c2cc(NC=O)c3ncc(-c4ccc(C(C)=O)cc4)n3c2)cc1OC 25.4%, CC(C)(C)C1CCC(=O)N(CCOc2ccccc2)CC1 (configuration not stated) -0.518%, COC(=O)c1c(NC(=O)Cc2cccs2)sc(C)c1C 5.78%, COc1cccc(/C=C/C(=O)Nc2ccc(N3CCOCC3)cc2)c1OC 0.215%, COc1ccc([N+](=O)[O-])cc1NCc1ccccc1 2.42%, Cc1nc(Nc2ccccc2)sc1C(=O)c1ccccc1 5.11%, COc1ccc(-c2cc(C(=O)N(C)Cc3ccccc3)no2)cc1OC 7.07%, c1coc(Cn2c(-c3ccco3)nc3ccccc32)c1 -0.487%, CCOc1ccc(-c2cc(C(=O)NCc3cc(C(F)(F)F)cc(C(F)(F)F)c3)[nH]n2)c(C)c1 0.302%, FC(F)(F)c1cc(Sc2ccccc2)nc(-c2ccccn2)n1 2.95%
